Measured values as given in PubChem BioAssay AID624202 (National Center for Advancing Translational Sciences (NCATS), 2012).
Screen size: about 380,000 compounds; about 4,000 (1.1%) were called active. The shares of active, inactive and inconclusive entries below differ from those in the screen. Calls follow the shape of the dose curve; as a rule, active = well fitted activation curve with a large enough effect; inconclusive = small, poorly fitted or top-dose-only effect; inactive = no such curve, though single readings can be large or run the other way. Where the call is inconclusive, the potency comes from a doubtful curve fit.

Experiment: qHTS Assay to Identify Small Molecule Activators of BRCA1 Expression; also: nearly all actives have a fitted effect of over 80% in size
Conditions: MCF7-BRCA1-FFLuc reporter, luminescence, 48 h; activation: at 46.1 µM (top of the series), scaled: vehicle 0%, 10 µM genistein 100% unless noted
Outline: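 First, MCF7-BRCA1-FFLuc cells (2000/well) attach for 2 h; next, compounds are pin-added and incubated 48 h at 37 °C; finally, luciferase reagent is added and luminescence read after 15 min.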
Potency is read from the fitted curve at half-maximal effect; tags tell the direction and shape of the fitted curve.

| Compound | Potency | activation |
| --- | --- | --- |
| O=c1c2c3c(sc2nc2n1CCCCC2)C(O)CCC3 (centres undefined) | inconclusive: 17.8 µM [activator, partial curve, poor fit] |  |
| c1ccc(CSc2ncn(-c3ccccc3)n2)cc1 | inconclusive: 1.26 µM [activator, full curve, poor fit] |  |
| O=C(c1ccc([N+](=O)[O-])o1)N1CCCCCC1 |  | inactive: -19.4% |
| Cc1cnc(C(=O)Nc2ccc(F)c(F)c2)cn1 | inconclusive: 12.6 µM [activator, partial curve, poor fit] |  |
| O=C(/C=C/c1ccco1)Nc1ccc(CN2CCOCC2)cc1 | inconclusive: 7.08 µM [activator, partial curve, poor fit] |  |
| COc1ccc(-c2cc(CS(=O)(=O)c3ccccc3)on2)cc1 | inconclusive: 4.47 µM [activator, partial curve, poor fit] |  |
| c1ccc(Nc2nc(CSc3ncn[nH]3)cs2)cc1 | inconclusive: 11.2 µM [activator, partial curve, poor fit] |  |
| Cn1ccc2cc(OCc3ccccc3)ccc21 | inconclusive: 2.51 µM [activator, full curve, poor fit] |  |
| Cc1c(C(=O)O)[nH]c2c1C(=O)CC(c1ccc(C(C)(C)C)cc1)C2 (centres undefined) | inconclusive: 11.2 µM [activator, partial curve, poor fit] |  |
| COc1ccc(C2CC(c3ccc(C)o3)=NN2C(C)=O)cc1 (centres undefined) | active: 6.31 µM |  |
| COc1ccc2cc(C(=O)c3ccccc3)c(=O)oc2c1 |  | inactive: 74% |
| Cc1cccc(C)c1NC(=O)c1nc(S(=O)(=O)Cc2ccccc2)ncc1Cl |  | inactive: -49.3% |
| Cc1ccc(CN=c2c([N+](=O)[O-])nn(-c3cccc(C)c3)n2O)cc1 | inconclusive: 15.8 µM [activator, partial curve, poor fit] |  |
| COc1cccc(C(=O)N2N=C(c3ccccn3)CC2(O)C(F)(F)F)c1 (centres undefined) |  | inactive: -58.2% |
| COc1cccc(COC(=O)Nc2ccccc2)c1OC | inconclusive: 11.2 µM [activator, partial curve, poor fit] |  |
| COc1ccc(/C(N)=C/C(=O)C(C)(C)C)cc1 | inconclusive: 10 µM [activator, partial curve, poor fit] |  |
| Cc1ccc(-c2nc3ccc([N+](=O)[O-])cc3[nH]2)cc1 | inconclusive: 2.24 µM [activator, partial curve, poor fit] |  |
| CCOc1ccc(CN2C(=O)c3ccccc3Sc3ccc(C(=O)N4CCN(C)CC4)cc32)cc1 | inconclusive: 31.6 µM [activator, single point] |  |
| Fc1ccc(-c2nnc(Cc3ccc(Cl)cc3)o2)cc1 | inconclusive: 17.8 µM [activator, partial curve, poor fit] |  |
